The structures appear in SMILES notation. The whole screen tested about 310,000 compounds, of which about 2,200 (0.71%) showed an effect of 50% or more. The effect is printed as a negative number. The list shows a part of the results.

The text below walks through data of article PMC4336329 (PLoS ONE, 2015).

The target in the assay is human ether-à-go-go-related gene (hERG) potassium channel (human, UniProt Q12809). As to the kind of experiment: primary screen, population patch clamp on CHO cells stably expressing hERG.
Sequence of human ether-à-go-go-related gene (hERG) potassium channel (Q12809 whole entry, looked up): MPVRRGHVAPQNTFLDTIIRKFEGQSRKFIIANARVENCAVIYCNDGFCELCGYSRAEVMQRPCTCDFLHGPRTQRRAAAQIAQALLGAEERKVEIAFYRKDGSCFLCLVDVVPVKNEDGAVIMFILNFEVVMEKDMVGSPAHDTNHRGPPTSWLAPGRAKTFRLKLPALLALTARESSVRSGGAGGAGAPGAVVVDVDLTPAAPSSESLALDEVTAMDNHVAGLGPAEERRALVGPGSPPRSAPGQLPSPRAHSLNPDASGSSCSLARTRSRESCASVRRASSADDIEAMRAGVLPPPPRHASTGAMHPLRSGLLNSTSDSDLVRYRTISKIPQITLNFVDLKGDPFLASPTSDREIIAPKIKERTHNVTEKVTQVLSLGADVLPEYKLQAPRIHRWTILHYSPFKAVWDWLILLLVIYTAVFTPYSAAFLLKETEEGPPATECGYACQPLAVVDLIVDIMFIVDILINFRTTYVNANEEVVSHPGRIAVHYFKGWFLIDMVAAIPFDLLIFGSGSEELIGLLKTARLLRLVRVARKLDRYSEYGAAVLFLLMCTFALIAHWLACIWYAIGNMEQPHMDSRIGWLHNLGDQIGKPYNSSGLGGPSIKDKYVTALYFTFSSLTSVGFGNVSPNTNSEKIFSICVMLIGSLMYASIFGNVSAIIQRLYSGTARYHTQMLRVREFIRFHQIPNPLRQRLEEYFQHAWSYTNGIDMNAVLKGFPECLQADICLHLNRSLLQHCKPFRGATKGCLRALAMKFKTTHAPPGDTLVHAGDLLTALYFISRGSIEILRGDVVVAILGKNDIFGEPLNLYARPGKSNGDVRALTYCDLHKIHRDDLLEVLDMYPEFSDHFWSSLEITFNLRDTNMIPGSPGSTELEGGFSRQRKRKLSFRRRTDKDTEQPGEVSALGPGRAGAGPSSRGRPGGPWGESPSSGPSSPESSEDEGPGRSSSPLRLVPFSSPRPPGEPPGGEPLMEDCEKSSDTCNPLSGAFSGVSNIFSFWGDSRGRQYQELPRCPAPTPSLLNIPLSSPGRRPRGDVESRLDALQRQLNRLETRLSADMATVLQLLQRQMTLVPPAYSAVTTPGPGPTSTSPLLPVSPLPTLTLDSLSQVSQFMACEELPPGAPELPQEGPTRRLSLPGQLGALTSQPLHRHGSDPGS
As to `COc1ccc(CN2CCCC(C(=O)N3CCCCC3)C2)c(OC)c1.O=C(O)C(=O)O` (centres unmarked), the “hERG current change (%, negative = inhibition) at 1uM” value was determined as 1.97%.

Consider `Cn1c(SCC(=O)Nc2ccc3nc(SCC(=O)NC4CC4)sc3c2)nnc1-c1ccccc1`, for which the “hERG current change (%, negative = inhibition) at 1uM” value amounted to 2.29%.

Regarding `Cc1ccc(S(=O)(=O)NC(C(=O)N2CCOCCOCCOCC2)C(C)C)cc1` (centres unmarked), the “hERG current change (%, negative = inhibition) at 1uM” value amounted to 10.1%.

Consider `COc1ccc(N=C2SC(C(N)=O)CC(=O)N2Cc2ccc3c(c2)OCO3)cc1` (centres unmarked), for which the “hERG current change (%, negative = inhibition) at 1uM” value is on record as 15.3%.

With `O=c1[nH]c(=S)c2ncn(-c3ccccc3)c2[nH]1`, the “hERG current change (%, negative = inhibition) at 1uM” value worked out at 9.41%.

As for `O=C(Nc1cccc(F)c1)c1cccc(S(=O)(=O)N2CCOCC2)c1`, the “hERG current change (%, negative = inhibition) at 1uM” value is listed as -5.25%.

As for `CCCCc1n[nH]c(=S)n1Cc1ccc(C)cc1`, the “hERG current change (%, negative = inhibition) at 1uM” value is listed as -5.06%.

With `COc1cccc(C(=O)N=c2sc3c(C)ccc(OC)c3n2C)c1`, the “hERG current change (%, negative = inhibition) at 1uM” value came out at 5.43%.

Turning to `O=[N+]([O-])CC(c1ccccc1)c1c[nH]c2ccccc12` (centres unmarked), the “hERG current change (%, negative = inhibition) at 1uM” value worked out at 11.6%.

For the molecule `O=[N+]([O-])c1ccc(C[n+]2cccc3ccccc32)cc1.[Cl-]`, the “hERG current change (%, negative = inhibition) at 1uM” value is listed as 4.56%.

Take `COc1ccccc1/C(C)=N/Oc1cc(N)cc([N+](=O)[O-])c1`: the “hERG current change (%, negative = inhibition) at 1uM” value turned out to be 12.9%.

Turning to `O=C(NCc1cccs1)c1ccccc1[N+](=O)[O-]`, the “hERG current change (%, negative = inhibition) at 1uM” value was found to be 10.2%.

On to `CCc1cc(-c2nc(N)ncc2-c2csc(C)n2)c(O)cc1OC`, for which the “hERG current change (%, negative = inhibition) at 1uM” value is listed as -4.12%.

As for `CC(Sc1nc2ccccc2c(=O)n1CC1CCCO1)C(=O)N(C)c1ccccc1` (centres unmarked), the “hERG current change (%, negative = inhibition) at 1uM” value is on record as -5.79%.

Regarding `O=C1S/C(=C\c2ccc(O)c([N+](=O)[O-])c2)C(=O)N1Cc1cccc([N+](=O)[O-])c1`, the “hERG current change (%, negative = inhibition) at 1uM” value was 5.15%.

Regarding `OCCCn1c(-c2ccccc2)nc(=S)c2c1CCCC2`, the “hERG current change (%, negative = inhibition) at 1uM” value turned out to be 9.22%.

On to `COc1cccc(-c2nnc(SCC(=O)Nc3ccc4c(c3)OCCO4)n2Cc2ccco2)c1`, for which the “hERG current change (%, negative = inhibition) at 1uM” value amounted to 4.97%.

With `COc1ccc(/C=C(\NC(=O)c2ccc(OC)c(OC)c2)C(=O)NCCc2c[nH]c3ccccc23)cc1`, the “hERG current change (%, negative = inhibition) at 1uM” value was found to be 5.53%.

As for `CC(=O)Nc1ccc(NC(=O)COC(=O)Cc2cccs2)cc1`, the “hERG current change (%, negative = inhibition) at 1uM” value worked out at 13.2%.

For the molecule `Cc1cccc(N=C2NC(=O)CS2)c1`, the “hERG current change (%, negative = inhibition) at 1uM” value amounted to 3.4%.

For the molecule `COCCCNC(=O)CC(NS(=O)(=O)c1ccc(OC)cc1)c1ccc(OC)cc1` (centres unmarked), the “hERG current change (%, negative = inhibition) at 1uM” value is on record as 13.1%.

For the molecule `O=C1N(Cc2ccccc2)c2ccc(Cl)cc2C12OCCO2`, the “hERG current change (%, negative = inhibition) at 1uM” value worked out at 23.5%.

For `CC(C)CNS(=O)(=O)c1ccc(OCC(=O)NCC2CCCO2)c(Cl)c1` (centres unmarked), the “hERG current change (%, negative = inhibition) at 1uM” value worked out at 5.05%.

For the molecule `CCN(CC)CCCn1c(C)cc2c(c1=O)C(c1ccc(OC)c(OC)c1OC)C(C#N)=C(N)O2` (centres unmarked), the “hERG current change (%, negative = inhibition) at 1uM” value was 16.2%.

As for `COc1ccc2c(c1)c(C(=O)N/N=C/c1cn(C)c3ccccc13)c(C)n2C`, the “hERG current change (%, negative = inhibition) at 1uM” value is 8.71%.

`CCN(CC)C(=O)CSc1n[nH]c(=O)n1CCc1ccccc1`: the “hERG current change (%, negative = inhibition) at 1uM” value is 13.1%.

As for `Cc1nn(C)c(Oc2ccccc2)c1[N+](=O)[O-]`, the “hERG current change (%, negative = inhibition) at 1uM” value was determined as 3.16%.

For `N#CCOC(=O)c1c2c(nc3ccccc13)CCC2`, the “hERG current change (%, negative = inhibition) at 1uM” value stood at 11.7%.

On to `COc1cc(OC)cc(C(=O)N[C@H](C(=O)OCC(=O)c2ccc(F)cc2)C(C)C)c1`, for which the “hERG current change (%, negative = inhibition) at 1uM” value came to 0.225%.

As to `Cc1ccc(CNCC(O)c2ccccc2)s1.Cl` (centres unmarked), the “hERG current change (%, negative = inhibition) at 1uM” value came out at 16.8%.

For `CC(C)(C)C(=O)Nc1cccc(S(=O)(=O)NC2=NCCC2)c1`, the “hERG current change (%, negative = inhibition) at 1uM” value is reported as 7.28%.

In the case of `CC(C)Cc1nnc(NC(=O)CSc2ccccn2)s1`, the “hERG current change (%, negative = inhibition) at 1uM” value is 3.69%.

Regarding `O=[N+]([O-])c1cc(/C=N/n2c(-c3cccnc3)n[nH]c2=S)ccc1Cl`, the “hERG current change (%, negative = inhibition) at 1uM” value is recorded as 10.7%.

Turning to `Cc1ccc(S(=O)(=O)N(C)Cc2nc(-c3ccccn3)no2)cc1`, the “hERG current change (%, negative = inhibition) at 1uM” value stood at 8.03%.

With `C=CCn1nnnc1SCC(=O)Nc1cccc(OC)c1`, the “hERG current change (%, negative = inhibition) at 1uM” value is reported as -8.14%.

Regarding `CCc1cc(=O)oc2c(C)c(OCC(=O)N3CC[C@@]4(O)CCCC[C@H]4C3)ccc12`, the “hERG current change (%, negative = inhibition) at 1uM” value was 0.579%.

`CC(C)C(=O)Nc1cc2c3c(c1)CCC(=O)N3CCC2`: the “hERG current change (%, negative = inhibition) at 1uM” value came out at 0.5%.

In the case of `CCOC(=O)C1CCN(C(=O)c2sc3ncnc(N4CCC(C)CC4)c3c2C)CC1`, the “hERG current change (%, negative = inhibition) at 1uM” value is -57.3%.

As for `O=C(NCCc1ccccc1)c1nc2ncccn2n1`, the “hERG current change (%, negative = inhibition) at 1uM” value was 4.43%.

On to `COc1ccc(/C=N/Nc2nccnc2Cl)c(OC)c1`, for which the “hERG current change (%, negative = inhibition) at 1uM” value was 9.29%.

As for `O=C(O)c1ccc(C(=O)c2ccc3c(c2)C(=O)N(CCO)C3=O)cc1`, the “hERG current change (%, negative = inhibition) at 1uM” value is 9%.

As to `O=C(Nc1cccc(S(=O)(=O)Nc2ccc(Cl)cc2)c1)c1ccc2c(c1)OCCO2`, the “hERG current change (%, negative = inhibition) at 1uM” value was 1.5%.

For `O=C(O)c1c(Cl)nc2ccccn12`, the “hERG current change (%, negative = inhibition) at 1uM” value is reported as 18%.

Turning to `Cc1ccc(NS(=O)(=O)c2ccc(OCC(=O)NCc3ccncc3)cc2)cc1`, the “hERG current change (%, negative = inhibition) at 1uM” value was found to be 9.69%.
